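Method: 48-hour compound exposure of cells in 96-well plates, five concentrations, linear interpolation of endpoints. GI50: concentration for 50% inhibition of growth.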 The source holds more than one record for some entries. The other results are left out here. An entry can have further records. For some assays here: Records of one sample usually come from different ranges of test concentrations, not given here; some values may only mark the edge of a range. For some assays here: Values given together repeat one measurement in other runs, samples, wells, individuals or studies. A tag in brackets gives the origin of a value. A, B and so on number the origins entry by entry.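 TGI denotes the concentration required for complete inhibition of growth.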
Tests used:
Test in all cases: growth of human tumour cells (NCI), 48 h
[1] = system: A498 renal
[2] = system: CAKI-1 renal
[3] = system: DU-145 prostate
[4] = system: HOP-92 NSCLC
[5] = system: HS 578T breast
[6] = system: IGROV1 ovarian
[7] = system: NCI/ADR-RES ovarian
[8] = system: SN12C renal
[9] = system: BT-549 breast
[10] = system: CCRF-CEM leukemia
[11] = system: HCC-2998 colon
[12] = system: HT29 colon
[13] = system: KM12 colon
[14] = system: M14 melanoma
[15] = system: MALME-3M melanoma
[16] = system: MDA-MB-231 breast
[17] = system: MOLT-4 leukemia
[18] = system: NCI-H226 lung
[19] = system: OVCAR-3 ovarian
[20] = system: OVCAR-4 ovarian
[21] = system: OVCAR-5 ovarian
[22] = system: RPMI-8226 leukemia
[23] = system: RXF 393 renal
[24] = system: SF-295 CNS
[25] = system: SK-MEL-2 melanoma
[26] = system: SK-OV-3 ovarian
[27] = system: SNB-75 CNS
[28] = system: 786-0 renal
[29] = system: A549 NSCLC
[30] = system: PC-3 prostate
[31] = system: T-47D breast
[32] = system: TK-10 renal

CNc1ccc(-c2cc(=O)oc3ccc(Cl)cc23)cc1
TGI [1]: 966 nM and 68.2 µM
GI50 [2]: 82.1 nM and 1.84 µM
TGI [3]: 4.99 µM and > 100 µM
GI50 [4]: 2.64 µM and 83.8 nM
TGI [5]: 2.36 µM and > 100 µM
GI50 [6]: 1.74 µM and 88 nM
TGI [7]: 440 nM and > 100 µM
GI50 [8]: 181 nM and 4.8 µM

COc1cc([C@@H]2c3cc4c(cc3[C@H](O)[C@H]3COC(=O)[C@H]23)OCO4)cc(OC)c1OC
TGI [1]: 500 nM, < 13 nM [sample A] and < 21.6 nM [sample B]
TGI [9]: 29.8 µM, > 76.7 µM [sample A] and < 10 nM [sample B]
TGI [2]: 50 µM, 99 nM [sample A] and > 100 µM [sample B]
TGI [10]: 50 µM and 220 nM
TGI [11]: 2.27 µM [1 test] and 31.4 nM [mean of 3 tests]
TGI [4]: 22.6 µM, 261 nM [sample A] and 21 µM [sample B]
TGI [12]: < 5 nM and > 7.24 µM
TGI [6]: 927 nM [sample A, mean of 2 tests] and > 100 µM [sample B, mean of 2 tests]
TGI [13]: 99.9 nM, < 215 nM [sample A] and > 100 µM [sample B]
TGI [14]: 28 µM [sample A, mean of 2 tests] and < 10 nM [sample B, 1 test]
GI50 [15]: 47.3 µM [sample A, 1 test] and < 10 nM [sample B, mean of 2 tests]
TGI [16]: < 5 nM [sample A] and > 100 µM [sample B]
TGI [17]: 50 µM and < 215 nM
TGI [18]: 30.1 µM, 3.55 µM [sample A] and < 10 nM [sample B]
TGI [19]: 50 µM [sample A, mean of 2 tests] and < 17.5 nM [sample A, mean of 3 tests] and < 10 nM [sample B, 1 test]
TGI [20]: 500 nM [sample A, mean of 2 tests] and > 100 µM [sample A, mean of 3 tests] and > 100 µM [sample B, 1 test]
GI50 [21]: 261 nM [sample A, mean of 3 tests] and < 10 nM [sample B, mean of 2 tests]
TGI [22]: < 5 nM [sample A] and > 100 µM [sample B]
TGI [23]: < 215 nM [sample A, mean of 3 tests] and > 100 µM [sample B, 1 test]
TGI [24]: 500 nM [sample A] and > 100 µM [sample B]
TGI [25]: 3.65 µM [sample A, mean of 2 tests] and > 100 µM [sample A, mean of 3 tests] and > 100 µM [sample B, 1 test]
TGI [26]: 500 nM, > 100 µM [sample A] and 9.32 µM [sample B]
TGI [27]: < 5 nM [sample A, 1 test] and > 100 µM [sample A, mean of 2 tests] and > 88.2 µM [sample B, mean of 2 tests]

C=CCN(/C=C1\C(=O)O[C@H](COC)[C@@]2(C)C1=C(O)C(=O)C1=C2[C@H](OC(C)=O)C[C@]2(C)C(=O)CC[C@@H]12)CC=C
GI50 [28]: 6.04 µM and 180 nM
TGI [29]: 1.43 µM and > 100 µM
GI50 [9]: 1.96 µM and 140 nM
GI50 [4]: 15.5 µM and 198 nM
TGI [5]: 5.61 µM and 420 nM
TGI [6]: 20 µM and 1.53 µM
GI50 [15]: 15 nM and 507 nM
TGI [18]: 3.28 µM and 39.1 µM
GI50 [19]: 2.91 µM and 257 nM
GI50 [30]: > 20 µM and 376 nM
TGI [27]: 20 µM and 683 nM
GI50 [31]: 1.65 µM and 165 nM
TGI [32]: 3.2 µM and 75.8 µM

Reference: PubChem BioAssay (NCI)
